Test systems include HCC-2998 colon; OVCAR-5 ovarian; NCI/ADR-RES ovarian; A549 NSCLC; U251 CNS; OVCAR-4 ovarian; SN12C renal; UO-31 renal; SK-MEL-5 melanoma; RPMI-8226 leukemia; SR leukemia; LOX IMVI melanoma; SW-620 colon; EKVX NSCLC; SF-268 CNS; M14 melanoma; HS 578T breast; SF-295 CNS; OVCAR-8 ovarian; SK-MEL-28 melanoma; UACC-257 melanoma; HOP-62 NSCLC; SNB-75 CNS; SK-MEL-2 melanoma; KM12 colon; TK-10 renal; NCI-H23 lung; ACHN renal; COLO 205 colon; HCT-116 colon; A498 renal; 786-0 renal; SK-OV-3 ovarian; SF-539 CNS; MALME-3M melanoma; CCRF-CEM leukemia.

Holding throughout (test): NCI-60 cell line screen, 48 h

Each structure is given as a SMILES string.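 Step 1: Grow cells in 96-well plates. Step 2: Expose to compound for 48 hours at 5 concentrations. Step 3: Interpolate endpoints linearly; if unreached, use highest concentration. At the GI50, growth is halved.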 Some entries of the source have several records that differ or are many. This list holds those alone. An entry can have further records. For some assays here: A record mostly stands for its own series of concentrations, not given here; a value can be the end of its range.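 TGI denotes the concentration required for complete inhibition of growth.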 Marks such as (2×) count equal records among those shown. For some assays here: The records of an entry repeat one measurement (runs, samples, wells, individuals or studies). A tag in brackets gives the origin of a value. The letters are not those of the source and start again with each entry.

With `Cc1cc(O)c2c(c1)C[C@@H](O)C1=C2C(=O)c2c(O)ccc(OC3CC(O)C(OC4CC(OC5CCC(OC6CC(O)C(OC7CC(OC8CCC(O)C(C)O8)C(O)C(C)O7)C(C)O6)C(C)O5)C(O)C(C)O4)C(C)O3)c2C1=O` (stereo partly drawn), the TGI in the assay with HCC-2998 colon is 246 nM, 3.69 µM, 2.85 µM; in the assay on OVCAR-5 ovarian, 284 nM, 3.64 µM, 2.37 µM; in the assay with NCI/ADR-RES ovarian, 211 nM and > 100 µM; in the assay with A549 NSCLC, 494 nM and 5.33 µM; in the assay on U251 CNS it was 130 nM, 1.85 µM, 1.29 µM; in the assay on OVCAR-4 ovarian, 35.2 nM and 1.3 µM. The TGI in the assay on SN12C renal was 115 nM, 814 nM, 5.75 µM; in the assay on UO-31 renal, 266 nM, 2.8 µM, 2.61 µM; in the assay on SK-MEL-5 melanoma it was 199 nM and 2.66 µM (2×); in the assay on RPMI-8226 leukemia it was 279 nM, 1.37 µM, 3.51 µM; in the assay with SR leukemia, 180 nM, 411 nM, 11.5 µM; with LOX IMVI melanoma, 98.9 nM, 1.02 µM, 705 nM. Moreover, the TGI was 82.9 nM, 1.19 µM, 437 nM in the assay with SW-620 colon; 248 nM, 3.41 µM, 7.13 µM in the assay with EKVX NSCLC; 62.5 nM, 941 nM, 3.67 µM in the assay with SF-268 CNS; 178 nM, 2.11 µM, 2.56 µM in the assay with M14 melanoma; 95.6 nM and 5.4 µM in the assay with HS 578T breast; 114 nM, 2.86 µM, 9.22 µM in the assay on SF-295 CNS. The TGI is 119 nM and 1.62 µM in the assay on OVCAR-8 ovarian; 137 nM, 990 nM, 3 µM in the assay on SK-MEL-28 melanoma; 206 nM, 2.85 µM, 2.25 µM in the assay on UACC-257 melanoma; 411 nM, 4.16 µM, 5.57 µM in the assay with HOP-62 NSCLC; 172 nM, 2.84 µM, 5.23 µM in the assay on SNB-75 CNS; 125 nM and 4.04 µM with SK-MEL-2 melanoma. Besides, the TGI was 253 nM, 4.21 µM, 3.28 µM in the assay with KM12 colon; 341 nM, 3.79 µM, 6.74 µM in the assay on TK-10 renal; 146 nM, 821 nM, 2.54 µM with NCI-H23 lung; 185 nM, 4.34 µM, 2.01 µM with ACHN renal; 84.6 nM and 1.88 µM with COLO 205 colon; 81.8 nM, 1.51 µM, 868 nM in the assay with HCT-116 colon. For the same molecule, the TGI is 526 nM, 5.92 µM, 4.25 µM with A498 renal; 131 nM, 1.68 µM, 1.14 µM in the assay on 786-0 renal; 2.88 µM, 8.23 µM [1 test] and 198 nM [mean of 2 tests] in the assay on SK-OV-3 ovarian; 145 nM, 1.32 µM, 2.64 µM in the assay on SF-539 CNS; 87.5 nM, 3.59 µM, 484 nM in the assay on MALME-3M melanoma. In addition, the GI50 in the assay with SK-OV-3 ovarian was 1.54 µM, 2.57 µM [1 test] and 76.4 nM [mean of 2 tests].
Consider `CCc1nc(N)nc(N)c1-c1ccc(Cl)cc1`, for which the TGI with CCRF-CEM leukemia is 9.79 µM [sample A] and > 100 µM [sample B].
As for `Cc1c(CNc2ccc(Cl)c(C(=O)NC(CC(=O)O)C(=O)O)c2)ccc2nc(N)nc(N)c12` (stereo not drawn), the TGI in the assay with HOP-62 NSCLC was 1.75 µM and > 1 mM.

These data come from PubChem BioAssay (NCI).
